Data on one molecule can be found in patent publication US20240174733A1 (published 2024).

For one assay, the target named is T1, GDF11 (UniProt O95390 299-407).
T1 chain: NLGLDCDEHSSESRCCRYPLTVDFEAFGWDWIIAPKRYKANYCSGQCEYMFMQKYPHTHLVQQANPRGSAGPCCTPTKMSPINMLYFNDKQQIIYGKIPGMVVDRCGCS
Description: Biacore SPR.

The target of a further assay is T2, activin A (UniProt P08476 311-426).
T2 chain: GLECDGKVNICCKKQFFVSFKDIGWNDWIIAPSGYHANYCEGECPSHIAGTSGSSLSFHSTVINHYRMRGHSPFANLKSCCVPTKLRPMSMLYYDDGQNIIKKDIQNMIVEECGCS
Description: Biacore SPR. For orientation: In SPR one partner is held on a chip, and binding of the other changes the refractive index at the surface.

B1: ActRIIA-hFc (Fc fusion)
chain: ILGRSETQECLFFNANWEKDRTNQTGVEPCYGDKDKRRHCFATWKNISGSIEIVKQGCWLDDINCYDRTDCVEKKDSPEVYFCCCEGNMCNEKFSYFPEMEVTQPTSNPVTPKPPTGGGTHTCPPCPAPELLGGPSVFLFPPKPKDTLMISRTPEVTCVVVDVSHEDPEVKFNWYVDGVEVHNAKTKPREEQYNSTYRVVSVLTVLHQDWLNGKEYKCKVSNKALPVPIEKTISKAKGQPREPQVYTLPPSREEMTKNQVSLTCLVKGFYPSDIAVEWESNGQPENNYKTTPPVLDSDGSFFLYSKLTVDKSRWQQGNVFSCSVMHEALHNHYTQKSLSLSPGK
As usually defined, the Kd is the equilibrium constant for the complex coming apart. Take B1: the Kd with GDF11 was found to be 9.96 nM; in the assay with activin A it was 0.005 nM.
